Laboratory results: PubChem BioAssay AID2147 (National Center for Advancing Translational Sciences (NCATS), 2009)
Out of some 230,000 compounds screened, about 3,600 (1.6%) were called active. The shares of active, inactive and inconclusive entries below differ from those in the screen. Calls come from the whole dose curve; as a rule, active = well fitted inhibition curve with a large enough effect (not every such curve was filed as active); inconclusive = small, poorly fitted or top-dose-only effect, or another doubt; inactive = no such curve, though single readings can be large or run the other way. Potencies of inconclusive entries are doubtful fits and often do not repeat.

Target: Lysine-specific demethylase 4E (Homo sapiens) (UniProt B2RXH2)
Sequence of UniProt B2RXH2 (B2RXH2 whole entry, looked up, the tested form may be a part): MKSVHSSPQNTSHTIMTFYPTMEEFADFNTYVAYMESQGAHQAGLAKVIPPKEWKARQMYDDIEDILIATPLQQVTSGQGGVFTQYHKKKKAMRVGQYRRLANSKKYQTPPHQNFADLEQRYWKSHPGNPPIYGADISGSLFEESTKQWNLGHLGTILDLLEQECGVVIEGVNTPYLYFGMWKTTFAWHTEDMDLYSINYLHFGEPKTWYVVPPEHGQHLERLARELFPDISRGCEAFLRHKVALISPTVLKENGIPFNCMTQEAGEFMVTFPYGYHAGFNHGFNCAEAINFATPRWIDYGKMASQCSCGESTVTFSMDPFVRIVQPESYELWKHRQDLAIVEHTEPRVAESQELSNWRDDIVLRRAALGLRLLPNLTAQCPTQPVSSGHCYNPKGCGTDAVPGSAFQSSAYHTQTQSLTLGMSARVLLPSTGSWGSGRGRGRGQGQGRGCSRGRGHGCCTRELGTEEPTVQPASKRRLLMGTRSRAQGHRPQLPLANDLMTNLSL
Experiment: qHTS Assay for Inhibitors of Human Jumonji Domain Containing 2E (JMJD2E)
Conditions: JMJD2E catalytic domain, FDH-coupled NADH fluorescence (FDH is formaldehyde dehydrogenase); series mostly up to 57.1 µM
Note: nearly all actives have a fitted effect of over 50% in size.
Potency is the fitted concentration of half-maximal effect; tags give direction and shape of the fitted curve.

| Structure (SMILES) | Potency |
| --- | --- |
| CN1/C(=C\C(=O)COC(=O)Cn2nnc(-c3ccccc3)n2)C(C)(C)c2ccccc21 | inconclusive: 39.8 µM [inhibitor, single point] |
| O=C(c1ccco1)N1CCN(c2ccc(F)cc2)CC1 | inactive |
| COc1ccc(-c2ccc(SCC(=O)NCc3ccco3)nn2)cc1 | inactive |
| CCCCNC(=O)c1cn(CC)c2cc(N3CCN(C)CC3)c(F)cc2c1=O | inconclusive: 28.2 µM [inhibitor, partial curve] |
| CCOC(=O)c1ccc(NC(=O)Nc2ccc(S(N)(=O)=O)cc2)cc1 | inactive |
| O=C(O)C1CC=CCC1C(=O)Nc1ccc2c(c1)OCCO2 (stereo not drawn) | inactive |
| CN(C(=O)c1ccc(-c2nn(C)c(=O)c3ccccc23)cc1)c1ccccc1 | inactive |
| CCCCC/C=C\C/C=C\C/C=C\CCCCCCC(=O)NCC(=O)O | inactive |
| COCCN(CC(=O)NC1CCCCC1)C(=O)/C=C/C(=O)c1ccc(OC)cc1O | inactive |
| Cc1ccc(SCCc2ccc(C)nc2)cc1 | inactive |
| COc1ccc(S(=O)(=O)NCC(c2cccnc2)N2CCN(c3ccc(F)cc3)CC2)cc1C (stereo not drawn) | inactive |
| CCOc1ccc(S(=O)(=O)NCCC(=O)OCC(=O)Nc2cc(C)on2)cc1 | inactive |
| COc1ccc(S(=O)(=O)c2c(N)n(Cc3ccco3)c3nc4ccccc4nc23)cc1 | inconclusive: 31.6 µM [inhibitor, partial curve] |
| CCC(C)NC(=O)c1ccccc1-c1nc2ccccc2[nH]1 (stereo not drawn) | inconclusive: 25.1 µM [inhibitor, single point] |
| Cc1ccc[n+](-c2[nH]c(=O)sc2/C=N/N=C(\[O-])CCn2c3ccccc3c3ccccc32)c1 | inactive |
| Cc1cccc(NC(=O)CN2C(=O)S/C(=C\c3ccccn3)C2=O)c1 | inactive |
| C=CCn1c(NC(=O)c2ccco2)c(S(=O)(=O)c2ccccc2)c2nc3ccccc3nc21 | inconclusive: 25.1 µM [inhibitor, partial curve] |
| O=C(Nc1ccc(-c2nc3ccccc3s2)cc1)c1cc(-n2cnnc2)ccc1Cl | inconclusive: 31.6 µM [inhibitor, partial curve] |
| CCC(C)Sc1nnc(CSc2nc(C)cc(C)n2)n1C (stereo not drawn) | inactive |
| O=C(O)CCC(=O)Nc1ccc(N2CCCCCC2)cc1 | inconclusive: 14.1 µM [inhibitor, partial curve] |
| c1ccc(Nc2nc(N3CCOCC3)c3ccccc3n2)cc1 | inconclusive: 35.5 µM [inhibitor, single point] |
| CN(C)c1ccc(S(=O)(=O)NCC(=O)OCC(=O)Nc2cccc(Cl)c2)cc1[N+](=O)[O-] | inactive |
| COc1ccccc1OCC(=O)OC/C(O)=C(\C#N)c1nc2ccccc2[nH]1 | inactive |
| O=C(CC1CCCCC1)N1CCN(c2ccccn2)CC1 | inconclusive: 31.6 µM [inhibitor, partial curve] |
| Cc1ccc(NC(=S)NNC(=O)c2cccc([N+](=O)[O-])c2)cc1Cl | inactive |

| Structure (SMILES) | Potency |
| --- | --- |
| CC1=NN(c2ccccc2)C(=O)C1C(=O)c1ccc([N+](=O)[O-])cc1 (stereo not drawn) | inconclusive: 39.8 µM [inhibitor, single point] |
| CCOc1ccc2[nH]c(=O)c(CN(CCO)C(=O)c3ccc(OC)c(OC)c3)cc2c1 | inconclusive: 28.2 µM [inhibitor, partial curve] |
| CCn1c(SCc2nc3ccccc3c(=O)[nH]2)nc2ccccc2c1=O | inconclusive: 39.8 µM [inhibitor, single point] |
| O=C(CSc1nc(Nc2ccccc2)nc(N2CCOCC2)n1)Nc1ccc([N+](=O)[O-])cc1 | inactive |
| O=C(c1cccc(F)c1)N1CCN(Cc2c[nH]c3ccccc23)CC1 | inconclusive: 39.8 µM [inhibitor, single point] |
| COc1ccc(S(=O)(=O)N(C(=O)C(C)C)c2ccc3oc(=O)sc3c2)cc1 | inactive |
| Cc1ccc(S(=O)(=O)N2CCN(C(=O)N3CCOCC3)C2c2ccc(N(C)C)cc2)cc1 (stereo not drawn) | inactive |
| COc1ccc(NC(=O)CCS(=O)(=O)c2cccc3nonc23)cc1 | inactive |
| N#Cc1cn(Cc2cccc(Cl)c2)c2ccccc12 | inconclusive: 10 µM [inhibitor, single point] |
| C/C(C/C(C)=C1/SC(=S)NC1=O)=C1\SC(=S)NC1=O | inactive |
| COc1ccc2c(c1OC)C(=O)N1C(C(=O)O)Cc3c([nH]c4ccccc34)C21 (stereo not drawn) | inconclusive: 28.2 µM [inhibitor, partial curve] |
| COc1cccc(NC(=O)NCCCN2CCN(c3ccc(F)cc3)CC2)c1 | inactive |
| COC(=O)[C@@]1(Cc2ccc(F)cc2)[C@H]2c3cc(C(=O)N4CCCC4)n(CCc4c[nH]c5ccc(OC)cc45)c3C[C@H]2CN1C(=O)c1ccccc1 | inconclusive: 39.8 µM [inhibitor, single point] |
| CN1c2ccccc2C(=O)/C(=C\Nc2ncccn2)S1(=O)=O | inconclusive: 22.4 µM [inhibitor, single point] |
| O=C(Nc1nc(-c2ccccn2)cs1)c1ccccc1-n1cnnn1 | inconclusive: 39.8 µM [inhibitor, single point] |
| N#Cc1ccc(-c2csc(NC(=O)C3CC3)n2)cc1 | inconclusive: 14.1 µM [inhibitor, single point] |
| COc1n[nH]c(C(=O)NCc2ccccc2)c1[N+](=O)[O-] | inactive |
| COc1ccc2nc(N3CCCCC3)c(/C=C3\SC(=S)NC3=O)cc2c1 | inactive |
| CCOc1ccc(NCC(=O)Nc2ccc(Cl)cc2C)cc1 | inactive |
| CSc1n[nH]c(-c2ccc(C(F)(F)F)cc2)n1 | inconclusive: 39.8 µM [inhibitor, single point] |
| COC(=O)CCS(=O)(=O)c1nc(-c2ccccc2)cc(C(F)(F)F)n1 | inactive |
| CN(c1ccccc1C(=O)O)S(=O)(=O)c1ccc2c3c(cccc13)C(=O)N2 | inconclusive: 39.8 µM [inhibitor, single point] |
| CC(=O)Nc1ccc(S(=O)(=O)N2CCSC2C(=O)O)cc1 (stereo not drawn) | inactive |
| Nc1nc2nc(-c3ccc(OCc4ccccc4)cc3)cc(C(F)(F)F)n2n1 | inconclusive: 28.2 µM [inhibitor, partial curve] |
| Nc1ncc(-c2cc3ccccc3oc2=O)s1 | inconclusive: 28.2 µM [inhibitor, single point] |

| Structure (SMILES) | Potency |
| --- | --- |
| Cc1ccccc1CN1CCN(CC2CC3C=CC2C3)CC1 (stereo not drawn) | inconclusive: 22.4 µM [inhibitor, single point] |
| O=c1cc(-c2ccc(O)c(O)c2)oc2ccccc12 | active: 8.91 µM |
| Cc1ccc(CC2S/C(=C(/C#N)C(=O)NCc3ccco3)N(c3ccccc3)C2=O)cc1 (stereo not drawn) | inactive |
| COc1ccccc1C1(CCN=Cc2ccc(N(C)C)cc2)CCOC(C)(C)C1 (stereo not drawn) | inactive |
| CC1(C)CC2C1CC[C@]1(C)CCC3C(C(=O)O)CC(=O)O[C@]32C1 (stereo partly drawn) | inactive |
| NNC(=O)c1sccc1OCc1ccc(F)cc1 | inactive |
| CCOc1ccc2[nH]c(=O)c(CN(Cc3ccccc3)C(=O)N3CCCC3)cc2c1 | inconclusive: 4.47 µM [inhibitor, full curve] |
| O=C1NC(c2ccccc2)=C(c2nc3ccccc3s2)C(c2ccc(F)cc2)N1 (stereo not drawn) | inconclusive: 35.5 µM [inhibitor, single point] |
| Cc1cccc(NC(=O)CN2C(=O)N/C(=C\c3ccc(-c4cccc(C(=O)O)c4)o3)C2=O)c1 | inconclusive: 31.6 µM [inhibitor, partial curve] |
| CC(C)C(=O)Nc1cccc(-c2nc3ccccc3o2)c1 | inconclusive: 20 µM [inhibitor, partial curve] |
| CN(C)S(=O)(=O)c1cccc(C(=O)NC(=S)N(CCC#N)Cc2cccnc2)c1 | inconclusive: 28.2 µM [inhibitor, single point] |
| Cc1cccc(NC(=O)/C(C#N)=C/c2cn(CC(=O)NCc3ccco3)c3ccccc23)c1 | inconclusive: 22.4 µM [inhibitor, partial curve] |
| CN(C)S(=O)(=O)c1ccc(/C(O)=C2/C(=O)C(=O)N(Cc3cccnc3)C2c2ccncc2)cc1 (stereo not drawn) | inactive |
| O=C(Cn1c2c(c(-c3ccccc3Cl)cc1=O)CCC2)NCC1CCCO1 (stereo not drawn) | inconclusive: 31.6 µM [inhibitor, partial curve] |
| CCOC(=O)CNC(=O)CSc1nnc(-c2ccco2)n1Cc1ccco1 | inconclusive: 35.5 µM [inhibitor, single point] |
| O=C(N/N=C/c1ccc([N+](=O)[O-])cc1)c1ccc(COc2ccccc2-c2ccccc2)cc1 | inconclusive: 39.8 µM [inhibitor, single point] |
| Cc1ccn2cc(C(=O)NCc3ccco3)nc2c1 | inconclusive: 28.2 µM [inhibitor, partial curve] |
| O=c1[nH]c(-c2ccccn2)cc2ccccc12 | inconclusive: 31.6 µM [inhibitor, partial curve] |
| CSc1ccc(/C=N/NC(=O)c2cc(O)cc(O)c2)cc1 | inconclusive: 28.2 µM [inhibitor, single point] |
| CCOC(=O)c1sc(NC(=O)c2ccco2)nc1-c1ccccc1 | inconclusive: 35.5 µM [inhibitor, single point] |
| O=C(Nc1ccc(C(=O)Oc2ccccc2)c(O)c1)c1ccccc1 | inconclusive: 39.8 µM [inhibitor, single point] |
| CCOC(=O)N1CCN(C(=O)C2CCN(Cc3cccc(OCc4ccccc4)c3)CC2)CC1 | inconclusive: 12.6 µM [inhibitor, partial curve] |
| Cc1nc2c(-c3ccccc3)c(C)nn2c(N)c1-c1ccccc1 | inconclusive: 28.2 µM [inhibitor, partial curve] |
